The values that follow come from the GPR68 mutational scans of Howard et al. (2025).

First the molecules themselves.
B1: GPR68, Q15743 (parent)
chain: MGNITADNSSMSCTIDHTIHQTLAPVVYVTVLVVGFPANCLSLYFGYLQIKARNELGVYLCNLTVADLFYICSLPFWLQYVLQHDNWSHGDLSCQVCGILLYENIYISVGFLCCISVDRYLAVAHPFRFHQFRTLKAAVGVSVVIWAKELLTSIYFLMHEEVIEDENQHRVCFEHYPIQAWQRAINYYRFLVGFLFPICLLLASYQGILRAVRRSHGTQKSRKDQIQRLVLSTVVIFLACFLPYHVLLLVRSVWEASCDFAKGVFNAYHFSLLLTSFNCVADPVLYCFVSETTHRDLARLRGACLAFLTCSRTGRAREAYPLGAPEASGKSGAQGEEPELLTKLHPAFQTPNSPGSGGFPTGRLA

In data set [1] the parent is B1. Description: cAMP reporter score (Enrich2 score, wild type = 0); higher = more signal; HEK293T, FACS bins.
The variants in data set [2] derive from B1. Description: surface expression score (Enrich2 score, wild type = 0); higher = more signal; HEK293T, FACS bins.

Scores with a large standard error are left out. The source holds two more conditions with little spread; they are left out. In variant names, del marks residues removed and ins residues inserted between the two positions. For some assays here: The data file names ogerin without a concentration.

For H216M, the cAMP reporter score in data set [1] (pH 5.5) is -0.487; in data set [1] (pH 6, modulator: ogerin), 0.493. Besides, the surface expression score in data set [2] was -0.592.

H216N: the cAMP reporter score was -0.195 in data set [1] (pH 5.5); -0.479 in data set [1] (pH 6); -0.899 in data set [1] (pH 6, modulator: ogerin). Also, the surface expression score in data set [2] was -0.68.

On to H216E, for which the cAMP reporter score in data set [1] (pH 5.5) is 0.805; in data set [1] (pH 6), -0.661; in data set [1] (pH 6, modulator: ogerin), 0.438; in data set [1] (pH 6.5, modulator: ogerin), -0.012. Also, the surface expression score in data set [2] came to 0.704.

As to H216R, the cAMP reporter score in data set [1] (pH 5.5) was -0.286; in data set [1] (pH 6), -0.194; in data set [1] (pH 6, modulator: ogerin) it was -0.347; in data set [1] (pH 6.5, modulator: ogerin) it was -0.836. The surface expression score in data set [2] was 0.273.

For H216G, the cAMP reporter score in data set [1] (pH 5.5) is 0.066; in data set [1] (pH 6), -0.708; in data set [1] (pH 6, modulator: ogerin) it was -1.01; in data set [1] (pH 6.5, modulator: ogerin) it was -0.842. The surface expression score in data set [2] was determined as 0.932.

On to H216S, for which the cAMP reporter score is -0.29 in data set [1] (pH 5.5); -0.943 in data set [1] (pH 6); -0.739 in data set [1] (pH 6, modulator: ogerin); -0.995 in data set [1] (pH 6.5, modulator: ogerin). Also, in data set [2], the surface expression score came out at 0.231.

For H216P, the cAMP reporter score in data set [1] (pH 5.5) was -0.396; in data set [1] (pH 6, modulator: ogerin), -0.539; in data set [1] (pH 6.5, modulator: ogerin), -0.431. The surface expression score in data set [2] was found to be 2.62.

H216F: the cAMP reporter score is -0.3 in data set [1] (pH 5.5) and 0.214 in data set [1] (pH 6, modulator: ogerin). Further, in data set [2], the surface expression score worked out at 0.304.

Regarding H216Y, the cAMP reporter score in data set [1] (pH 5.5) was -0.726; in data set [1] (pH 6), -0.253; in data set [1] (pH 6, modulator: ogerin), -0.689; in data set [1] (pH 6.5, modulator: ogerin), -0.747. The surface expression score in data set [2] is -0.522.

Regarding G217_T218insGSG, the cAMP reporter score in data set [1] (pH 5.5) is -1.18; in data set [1] (pH 6), -1.14; in data set [1] (pH 6, modulator: ogerin), -1.29; in data set [1] (pH 6.5, modulator: ogerin), -1.38. Further, in data set [2], the surface expression score turned out to be 0.474.

Consider Q219_K220del, for which the cAMP reporter score in data set [1] (pH 5.5) is -1.4; in data set [1] (pH 6), -1.15; in data set [1] (pH 6, modulator: ogerin) it was -2.5; in data set [1] (pH 6.5, modulator: ogerin), -1.64. In addition, in data set [2], the surface expression score was -0.862.

For the variant S221_R222del, the cAMP reporter score in data set [1] (pH 5.5) is -0.588; in data set [1] (pH 6), -0.658; in data set [1] (pH 6, modulator: ogerin), -0.739; in data set [1] (pH 6.5, modulator: ogerin) it was -0.22. Moreover, the surface expression score in data set [2] amounted to 0.151.

For Q225_I226insG, the cAMP reporter score was -0.154 in data set [1] (pH 5.5) and 0.763 in data set [1] (pH 6.5, modulator: ogerin). The surface expression score in data set [2] worked out at 0.186.

For the variant H216_T218del, the cAMP reporter score in data set [1] (pH 5.5) was -0.677; in data set [1] (pH 6), -0.397; in data set [1] (pH 6, modulator: ogerin), -1.21; in data set [1] (pH 6.5, modulator: ogerin), -1.38. In addition, in data set [2], the surface expression score was -0.182.

As to R214_S215del, the cAMP reporter score is -1.54 in data set [1] (pH 5.5); -1.34 in data set [1] (pH 6); -1.79 in data set [1] (pH 6, modulator: ogerin); -0.978 in data set [1] (pH 6.5, modulator: ogerin). Also, the surface expression score in data set [2] was -0.641.

Turning to R222_K223insG, the cAMP reporter score was -0.696 in data set [1] (pH 5.5) and -0.174 in data set [1] (pH 6.5, modulator: ogerin). In data set [2], the surface expression score amounted to 1.54.

R214L: the cAMP reporter score in data set [1] (pH 5.5) is -0.361; in data set [1] (pH 6), -1.63; in data set [1] (pH 6, modulator: ogerin) it was -0.372; in data set [1] (pH 6.5, modulator: ogerin), -0.417. Moreover, the surface expression score in data set [2] was -0.957.

In the case of R214M, the cAMP reporter score worked out at 0.355 in data set [1] (pH 5.5); 1.06 in data set [1] (pH 6); 0.175 in data set [1] (pH 6, modulator: ogerin); 0.4 in data set [1] (pH 6.5, modulator: ogerin). Also, in data set [2], the surface expression score was -0.306.

Regarding R214D, the cAMP reporter score in data set [1] (pH 5.5) is 0.148; in data set [1] (pH 6), -0.652; in data set [1] (pH 6, modulator: ogerin), 0.22; in data set [1] (pH 6.5, modulator: ogerin), 0.248.

Take R214H: the cAMP reporter score is -0.472 in data set [1] (pH 5.5); -0.374 in data set [1] (pH 6); -0.506 in data set [1] (pH 6, modulator: ogerin); -0.598 in data set [1] (pH 6.5, modulator: ogerin). In addition, the surface expression score in data set [2] was -0.356.

On to R214A, for which the cAMP reporter score came to 2.3 in data set [1] (pH 5.5); 2.81 in data set [1] (pH 6, modulator: ogerin); 1.94 in data set [1] (pH 6.5, modulator: ogerin).

On to R214P, for which the cAMP reporter score in data set [1] (pH 5.5) is -0.239; in data set [1] (pH 6), -0.402; in data set [1] (pH 6, modulator: ogerin) it was -1.18; in data set [1] (pH 6.5, modulator: ogerin), -1.07. The surface expression score in data set [2] was 0.568.

Consider R214C, for which the cAMP reporter score in data set [1] (pH 5.5) was -0.673; in data set [1] (pH 6, modulator: ogerin) it was -0.163; in data set [1] (pH 6.5, modulator: ogerin), -0.173. Moreover, the surface expression score in data set [2] is -0.462.

For R214T, the cAMP reporter score was 0.475 in data set [1] (pH 5.5); -2.02 in data set [1] (pH 6); -0.026 in data set [1] (pH 6, modulator: ogerin); -1.02 in data set [1] (pH 6.5, modulator: ogerin).

For the variant R214V, the cAMP reporter score in data set [1] (pH 5.5) stood at 1.13; in data set [1] (pH 6) it was 0.109; in data set [1] (pH 6, modulator: ogerin), 1.29; in data set [1] (pH 6.5, modulator: ogerin) it was 0.288. Further, the surface expression score in data set [2] was 0.388.

As for R214F, the cAMP reporter score in data set [1] (pH 5.5) worked out at 1.01; in data set [1] (pH 6) it was 0.815. The surface expression score in data set [2] is 0.928.

For R214E, the cAMP reporter score in data set [1] (pH 5.5) was 0.213; in data set [1] (pH 6), 0.368; in data set [1] (pH 6, modulator: ogerin), 0.507; in data set [1] (pH 6.5, modulator: ogerin) it was -0.103. In addition, in data set [2], the surface expression score was -0.228.

With R214I, the cAMP reporter score was 0.243 in data set [1] (pH 5.5) and -0.491 in data set [1] (pH 6, modulator: ogerin). The surface expression score in data set [2] is -0.859.

R214N: the cAMP reporter score in data set [1] (pH 5.5) was found to be 1.79; in data set [1] (pH 6), 1.12; in data set [1] (pH 6, modulator: ogerin) it was 1.9; in data set [1] (pH 6.5, modulator: ogerin), 1.48. The surface expression score in data set [2] turned out to be 1.73.

With R214Q, the cAMP reporter score in data set [1] (pH 5.5) came to 0.755; in data set [1] (pH 6), 0.699; in data set [1] (pH 6, modulator: ogerin) it was 0.291; in data set [1] (pH 6.5, modulator: ogerin), 0.964. The surface expression score in data set [2] was -0.668.

On to R214W, for which the cAMP reporter score was 0.116 in data set [1] (pH 5.5); -1.01 in data set [1] (pH 6); -0.433 in data set [1] (pH 6, modulator: ogerin); -0.532 in data set [1] (pH 6.5, modulator: ogerin). Also, in data set [2], the surface expression score was -0.288.

Turning to R214Y, the cAMP reporter score was 1.05 in data set [1] (pH 5.5); -0.443 in data set [1] (pH 6); 0.575 in data set [1] (pH 6, modulator: ogerin); -0.062 in data set [1] (pH 6.5, modulator: ogerin). The surface expression score in data set [2] was determined as 0.443.

For R214S, the cAMP reporter score in data set [1] (pH 5.5) stood at 2.12; in data set [1] (pH 6) it was 0.504; in data set [1] (pH 6, modulator: ogerin) it was 2.01; in data set [1] (pH 6.5, modulator: ogerin), 1.71. The surface expression score in data set [2] is 1.76.
